From the supplement of paper PMC13380429

How the values were obtained:
Conditions in all cases: 72 h
HepG2 [1] = assay: relative viability EC50 (midpoint between 100% and the lowest measured viability); higher = less toxic
Calu-3 [2] = assay: as above
Vero E6 [3] = assay: as above
U2OS [4] = assay: as above
Caco-2 [5] = assay: as above
HepG2 [6] = assay: drug sensitivity score (DSS) for viability; higher = more toxic; extreme values may be limits of the assay
Calu-3 [7] = assay: as above
Vero E6 [8] = assay: as above
U2OS [9] = assay: as above
Caco-2 [10] = assay: as above
HepG2 [11] = assay: cell viability relative to DMSO; higher = less toxic
Calu-3 [12] = assay: as above
Vero E6 [13] = assay: as above
U2OS [14] = assay: as above
Caco-2 [15] = assay: as above

With `COc1ccc(-c2c(C)c(C(=O)NN3CCCCC3)nn2-c2ccc(Cl)cc2Cl)cc1` the “relative viability EC50” value (HepG2 [1]) was > 10 µM, the “relative viability EC50” value (Calu-3 [2]) was > 10 µM and the “relative viability EC50” value (Vero E6 [3]) was > 10 µM. For the same compound, the “relative viability EC50” value (U2OS [4]) was > 10 µM, the “relative viability EC50” value (Caco-2 [5]) was > 10 µM and the drug sensitivity score (HepG2 [6]) was 0. The drug sensitivity score (Calu-3 [7]) was 0, the drug sensitivity score (Vero E6 [8]) was 0 and the drug sensitivity score (U2OS [9]) was 0. The drug sensitivity score (Caco-2 [10]) was 0, the cell viability (HepG2 [11]; 1 nM) was 103% and the cell viability (HepG2 [11]; 10 nM) was 112%. It also gave a cell viability (HepG2 [11]; 100 nM) of 97.5%, a cell viability (HepG2 [11]; 1000 nM) of 102% and a cell viability (HepG2 [11]; 10000 nM) of 101%. For the same compound, the cell viability (Calu-3 [12]; 1 nM) was 89.1%, the cell viability (Calu-3 [12]; 10 nM) was 99.3% and the cell viability (Calu-3 [12]; 100 nM) was 99.4%. For the same compound, the cell viability (Calu-3 [12]; 1000 nM) was 95.7%, the cell viability (Calu-3 [12]; 10000 nM) was 95.2% and the cell viability (Vero E6 [13]; 1 nM) was 107%. The cell viability (Vero E6 [13]; 10 nM) was 108%, the cell viability (Vero E6 [13]; 100 nM) was 107% and the cell viability (Vero E6 [13]; 1000 nM) was 95.9%. For the same compound, the cell viability (Vero E6 [13]; 10000 nM) was 98.1%, the cell viability (U2OS [14]; 1 nM) was 96.8% and the cell viability (U2OS [14]; 10 nM) was 98.6%. It also gave a cell viability (U2OS [14]; 100 nM) of 97%, a cell viability (U2OS [14]; 1000 nM) of 102% and a cell viability (U2OS [14]; 10000 nM) of 92.4%. It also gave a cell viability (Caco-2 [15]; 1 nM) of 106%, a cell viability (Caco-2 [15]; 10 nM) of 99.9% and a cell viability (Caco-2 [15]; 100 nM) of 97.7%. The cell viability (Caco-2 [15]; 1000 nM) was 100% and the cell viability (Caco-2 [15]; 10000 nM) was 93.9%.
